# PubChem BioAssay AID686978 (National Center for Advancing Translational Sciences (NCATS), 2013)
# Where “and” joins values, the source holds several entries; their conditions need not be identical. Identical values can stand only once. Among all 420,000 compounds or so, about 64,000 (15%) were called active. This list was built around the results that the source calls inconclusive (neither active nor inactive); the mix of calls is not that of the screen. Calls follow the shape of the dose curve; as a rule, active = well fitted inhibition curve with a large enough effect; inconclusive = small, poorly fitted or top-dose-only effect; inactive = flat fitted curve, though single readings scatter. Potencies of inconclusive entries are doubtful fits and often do not repeat.
# Test: qHTS for Inhibitors of human tyrosyl-DNA phosphodiesterase 1 (TDP1): qHTS in cells in absence of CPT; also: nearly all actives have a fitted effect of over 55% in size
# Conditions: DT40 Tdp1-/- hTDP1 cells, no CPT, ATP luminescence, 48 h; activity change, negative = growth inhibition: at 46.2 µM (top of the series) unless noted
# Method in brief: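 Growth kinetics read by CellTiter-Glo luminescence after ≥48 hr at 37 °C. Cells: DT40 Tdp1-/- stably carrying human TDP1, 400 per well, compound exposure in the absence of CPT (DMSO vehicle).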
# % is scaled to controls: 0 for no effect and ±100 for the full control effect; potency is read from the fitted curve at half-maximal effect; tags tell the direction and shape of the fitted curve.
SMILES,Potency,"activity change, negative = growth inhibition"
CC(=O)C1C(c2cccc(F)c2)c2c(n[nH]c2C)CC1(C)O (stereo not given),inactive,–
Cc1ccn2c(NC3CCCCC3)c(-c3cccc(SC4CCCCC4)c3)nc2c1,active: 23.1 µM and active: 8.2 µM,–
CCC1Oc2ccccc2N(CC(=O)NCCc2ccc(OC)c(OC)c2)C1=O (stereo not given),"inconclusive: 29.1 µM [inhibitor, single point] and inconclusive: 13 µM [inhibitor, single point]",–
CSc1ccccc1C(=O)NCC1Cc2cc(F)cc(-c3cnccn3)c2O1 (stereo not given),"inconclusive: 18.4 µM [inhibitor, single point]",–
O=S(=O)(Nc1cccc(-c2nc3cccnc3s2)c1)c1cccs1,"inconclusive: 16.4 µM [inhibitor, single point]",–
C/C(Cn1nnc([N+](=O)[O-])n1)=N\NC(=O)c1ccc(Cl)c(Cl)c1,active: 16.4 µM,–
CCOC(=O)Cc1csc(NC(=O)Nc2ccccc2)n1,"inconclusive: 14.6 µM [inhibitor, single point]",–
O=C(NCc1ccccn1)c1cccc(S(=O)(=O)NCc2ccccc2)c1,inactive,–
C#CCNC(=O)C1=C[C@H](C(C)(C)C)C[C@H](OCCCCO)O1,inactive,–
CN(C)CCNC(=O)/C(=C/c1ccc(-c2cccc([N+](=O)[O-])c2)o1)NC(=O)c1ccccc1,"inconclusive: 29.1 µM [inhibitor, single point]",–
O=C(CN1C(=O)c2ccccc2S1(=O)=O)N1CCc2ccccc2C1,"inconclusive: 4.11 µM [inhibitor, full curve, poor fit]",–
COc1ccc([C@H]2CC(=O)C=C(c3cc(F)ccc3OC)C2)cc1,inactive,–
COc1cccc(C(=O)NCC2Cc3cccc(-c4nc(C)cnc4C)c3O2)c1OC (stereo not given),"inconclusive: 14.6 µM [inhibitor, partial curve]",–
COc1cc(OC)c2c(OC)cccc2n1,inactive,–
O=C(c1ccc2c(=O)n(Cc3ccccc3)c(=S)[nH]c2c1)N1CCCC1,"inconclusive: 29.1 µM [inhibitor, single point]",–
COc1cccc(Oc2cn[nH]c2-c2ccc(OC)cc2O)c1,"inconclusive: 20.6 µM [inhibitor, single point]",–
CC1CCC(NC(=O)Cn2ncc3c4ccccc4n(Cc4ccc(F)cc4)c3c2=O)CC1 (stereo not given),"inconclusive: 18.4 µM [inhibitor, single point]",–
O=C(O)c1ccccc1SC1CC(=O)N(c2cccc3ccccc23)C1=O (stereo not given),active: 2.59 µM,–
c1ccc(NCCC2OCC3(CO2)COC(CCNc2ccccc2)OC3)cc1 (stereo not given),"inconclusive: 25.9 µM [inhibitor, partial curve]",–
CCC(O)C1CCN(Cc2cn(-c3ccc(OC)cc3)nc2-c2cccc(F)c2)CC1 (stereo not given),active: 20.6 µM,–
c1ccc2c(c1)ncc1nncn12,inactive,–
CCNc1nc(C#N)nc(N2CCCCC2)n1,"inconclusive: 12.6 µM [inhibitor, partial curve]",–
C/C(=N/NC(=O)CNC(=O)C(c1ccccc1)c1ccccc1)c1ccco1,inactive,–
CCN(CC)CCn1c(=N)n(CC(O)c2ccco2)c2ccccc21 (stereo not given),"inconclusive: 7.31 µM [inhibitor, partial curve, poor fit]",–

SMILES,Potency,"activity change, negative = growth inhibition"
CC(=O)c1cccc(NC(=O)C2CCN(S(=O)(=O)c3ccccc3)CC2)c1,"inconclusive: 18.4 µM [inhibitor, single point]",–
CCN(CC(=O)Nc1cccc(C(C)=O)c1)S(=O)(=O)c1ccccc1,inactive,–
COc1ccc(CNC(=O)c2nn(C)c3c2CS(=O)(=O)c2ccccc2-3)cc1,"inconclusive: 29.1 µM [inhibitor, single point] and inconclusive: 20.6 µM [inhibitor, single point]",–
O=S(=O)(c1ccc(Cl)cc1)N1CCC2(CC1)CO2,inactive,–
CCOC(=O)N1CCN(S(=O)(=O)N2CCCC(C(=O)NCCCN3CCCCC3)C2)CC1 (stereo not given),inactive,–
CC(C)(O)C#Cc1ccc(CNC[C@H]2O[C@@H](n3cnc4c(N)ncnc43)[C@H](O)[C@@H]2O)s1,"inconclusive: 20.6 µM [inhibitor, single point]",–
CCC1CCCCN1S(=O)(=O)c1cc2c(cc1C)NC(=O)CO2 (stereo not given),"inconclusive: 9.2 µM [inhibitor, partial curve, poor fit]",–
Cc1ccc(CN(C(=O)COc2ccc([N+](=O)[O-])cc2)c2ccccn2)o1,"inconclusive: 9.2 µM [inhibitor, partial curve, poor fit]",–
O=C(C(=Cc1ccc(F)cc1)c1ccccc1)c1ccc(O)cc1,"inconclusive: 9.2 µM [inhibitor, partial curve, poor fit]",–
CC1CCN(C(=O)COC(=O)c2ccc(=O)n(Cc3ccccc3)n2)CC1,inactive,–
Cc1ccc(-c2cc(-c3ccccc3[N+](=O)[O-])[nH]n2)c(O)c1,–,inconclusive: -32.3% [inhibitor]
O=C(Nc1ccc2c(c1)CN(C(=O)Nc1ccc(F)cc1)CC2)c1ccccn1,active: 4.11 µM,–
Cc1ccc(Nc2ncc(C(=O)Nc3ccc(F)cc3F)c3ccccc23)cc1Cl,"inconclusive: 29.1 µM [inhibitor, single point]",–
CC(=O)c1ccc(NC(=O)CSc2ccc3nnc(CCNS(=O)(=O)c4ccc(C)cc4)n3n2)cc1,"inconclusive: 23.1 µM [inhibitor, single point]",–
Cc1cc(C)c(NC(=O)CSc2nc3[nH]ncc3c(=O)[nH]2)c(C)c1,inactive,–
CCN(CC)c1ccc2cc(C(C)=O)c(=O)oc2c1,inactive,–
O=C(COc1ccccc1)Nc1nnc(SCc2cc(=O)n3cc(Cl)ccc3n2)s1,inactive,–
COc1ccc(C(=O)n2nnc3ccccc32)cc1Br,"inconclusive: 23.1 µM [inhibitor, single point]",–
COc1ccccc1OCC(=O)NCCS(=O)(=O)N1CCN(c2ccc(F)cc2)CC1,inactive,–
CCNS(=O)(=O)c1ccc(OCCNS(C)(=O)=O)cc1,–,inconclusive: -32.8% [inhibitor]
COc1ccc(C(=O)/C=C2/C(=O)Nc3ccccc32)cc1OC,active: 4.11 µM,–
Cc1ccn2c(=O)nc(SCC(=O)c3ccccc3)nc2c1,–,inconclusive: -33.3% [inhibitor]
Cc1cc(C)n2nc(CC(=O)NNC(=O)COc3cccc(C)c3C)nc2n1,–,inconclusive: -12.4% [inhibitor]
COc1cccc(/C=C/C2=CC(C)(C)NC(=S)N2)c1,"inconclusive: 29.1 µM [inhibitor, single point]",–

SMILES,Potency,"activity change, negative = growth inhibition"
CCCc1nn2cc(-c3ccc(C)c(C)c3)nc2s1,"inconclusive: 14.6 µM [inhibitor, single point]",–
CC(=O)c1ccc(S(=O)(=O)N(C)CC(=O)Nc2cc(C)on2)cc1,"inconclusive: 29.1 µM [inhibitor, single point]",–
CCC(C)NC(=O)Cc1ccc(-c2ccccc2)cc1 (stereo not given),active: 20.6 µM,–
COc1ccc(-c2noc(CSc3nnc(Cc4ccccc4)n3-c3cccc(C)c3)n2)cc1,"inconclusive: 29.1 µM [inhibitor, single point]",–
CC1CCCCC12NC(=O)N(CC(=O)OCC(=O)N(C)C1CCCCC1)C2=O (stereo not given),inactive,–
CCC(=O)N1CCN(c2ccccc2NC(=S)NC(=O)c2ccco2)CC1,"inconclusive: 18.4 µM [inhibitor, single point]",–
CC(C)CN1CCN(Cc2cccc3cccnc23)CC1CCO (stereo not given),"inconclusive: 9.2 µM [inhibitor, partial curve]",–
CCc1nnc(SCC(=O)Nc2cccc(C(F)(F)F)c2)c2cc3oc(C)cc3n12,"inconclusive: 29.1 µM [inhibitor, single point]",–
COc1ccc(Nc2nc(NCc3ccco3)nc(N3CCOCC3)n2)cc1,"inconclusive: 29.1 µM [inhibitor, single point]",–
COc1cccc(CCc2nnc(CCC(=O)N3CCCC3c3nccs3)o2)c1 (stereo not given),inactive,–
CC(OC(=O)c1ccccc1C(=O)N(C)c1ccccc1)C(=O)Nc1ccc(C(N)=O)cc1 (stereo not given),"inconclusive: 29.1 µM [inhibitor, single point]",–
CCCOc1ccc(NCC(=O)Nc2ccc(C)cc2C)cc1,"inconclusive: 16.4 µM [inhibitor, partial curve, poor fit]",–
CCOCC(=O)Nc1ccc([N+](=O)[O-])cc1C,inactive,–
CC(=O)N1CCN(CC(=O)Nc2ccc(SC(F)F)cc2)CC1,inactive,–
CCC(C(=O)Nc1ccccc1OC)n1c(C(=O)OC)cc2sc(Cl)cc21 (stereo not given),"inconclusive: 14.6 µM [inhibitor, partial curve]",–
COc1ccc(CCNC(=O)/C(C#N)=C2\N=C(NC(=O)c3cccs3)c3ccccc32)cc1,active: 10.3 µM,–
Cc1ccc(C(CNC(=O)Nc2ccc(Cl)cc2)N2CCN(C)CC2)cc1 (stereo not given),"inconclusive: 25.9 µM [inhibitor, partial curve]",–
O=C(c1ccccc1)c1nn(-c2ccccc2)c(=O)cc1-c1ccccc1,"inconclusive: 20.6 µM [inhibitor, single point]",–
Cc1ccccc1Cn1c2ccccc2c2cnn(CC(=O)N3CCN(c4ccccc4)CC3)c(=O)c21,"inconclusive: 29.1 µM [inhibitor, single point]",–
CCCOc1ccc(F)cc1-c1cc(C(=O)NCc2ccco2)[nH]n1,"inconclusive: 9.2 µM [inhibitor, partial curve]",–
Cc1ccc(OCC(=O)c2cc(C)n(C)c2C)c([N+](=O)[O-])n1,inactive,–
Cc1cc(=O)oc2c(CN3CCN(CCO)CC3)c(O)ccc12,"inconclusive: 0.0065 µM [inhibitor, full curve, poor fit]",–
